The values that follow come from PMC9911399, “Two distinct binding modes provide the RNA-binding protein RbFox with extraordinary sequence specificity”.

B1: AAUGUCG (DNA:RNA)
RNA: GGGAGACCGGAAUUCAGAUUGUCCAAUGUCGUUAAAUCCCGUCGUAGCCACCA
DNA 1: CAATCTGAATTCCGGTCTCCC
DNA 2: TGGTGGCTACGACGGGATT
B2: UCUCGUC (DNA:RNA)
RNA: B1 RNA with A25U, A26C, G28C, U29G, C30U, G31C
DNA 1: CAATCTGAATTCCGGTCTCCC
DNA 2: TGGTGGCTACGACGGGATT
B3: CAGUGGC (DNA:RNA)
RNA: B1 RNA with A25C, U27G, G28U, U29G, C30G, G31C
DNA 1: CAATCTGAATTCCGGTCTCCC
DNA 2: TGGTGGCTACGACGGGATT
B4: AAUCGUU (DNA:RNA)
RNA: B1 RNA with G28C, U29G, C30U, G31U
DNA 1: CAATCTGAATTCCGGTCTCCC
DNA 2: TGGTGGCTACGACGGGATT
B5: ACGAGGA (DNA:RNA)
RNA: B1 RNA with A26C, U27G, G28A, U29G, C30G, G31A
DNA 1: CAATCTGAATTCCGGTCTCCC
DNA 2: TGGTGGCTACGACGGGATT
B6: CGAAUAC (DNA:RNA)
RNA: B1 RNA with A25C, A26G, U27A, G28A, C30A, G31C
DNA 1: CAATCTGAATTCCGGTCTCCC
DNA 2: TGGTGGCTACGACGGGATT
B7: GCUAGAA (DNA:RNA)
RNA: B1 RNA with A25G, A26C, G28A, U29G, C30A, G31A
DNA 1: CAATCTGAATTCCGGTCTCCC
DNA 2: TGGTGGCTACGACGGGATT
B8: UUUGUGU (DNA:RNA)
RNA: B1 RNA with A25U, A26U, C30G, G31U
DNA 1: CAATCTGAATTCCGGTCTCCC
DNA 2: TGGTGGCTACGACGGGATT
B9: GGGACUA (DNA:RNA)
RNA: GGGAGACCGGAAUUCAGAUUGUCCGGGACUAUUAAAUCCCGUCGUAGCCACCA
DNA 1: CAATCTGAATTCCGGTCTCCC
DNA 2: TGGTGGCTACGACGGGATT
B10: GCCUGAC (DNA:RNA)
RNA: B9 RNA with G26C, G27C, A28U, C29G, U30A, A31C
DNA 1: CAATCTGAATTCCGGTCTCCC
DNA 2: TGGTGGCTACGACGGGATT
B11: GUCAAUG (DNA:RNA)
RNA: B9 RNA with G26U, G27C, C29A, A31G
DNA 1: CAATCTGAATTCCGGTCTCCC
DNA 2: TGGTGGCTACGACGGGATT
B12: GUGCAUU (DNA:RNA)
RNA: B9 RNA with G26U, A28C, C29A, A31U
DNA 1: CAATCTGAATTCCGGTCTCCC
DNA 2: TGGTGGCTACGACGGGATT
B13: UCAGGCG (DNA:RNA)
RNA: B1 RNA with A25U, A26C, U27A, U29G
DNA 1: CAATCTGAATTCCGGTCTCCC
DNA 2: TGGTGGCTACGACGGGATT
B14: AGGUCAA (DNA:RNA)
RNA: B9 RNA with G25A, A28U, U30A
DNA 1: CAATCTGAATTCCGGTCTCCC
DNA 2: TGGTGGCTACGACGGGATT
B15: UGCAGUG (DNA:RNA)
RNA: B9 RNA with G25U, G27C, C29G, A31G
DNA 1: CAATCTGAATTCCGGTCTCCC
DNA 2: TGGTGGCTACGACGGGATT
B16: CUCGUUU (DNA:RNA)
RNA: B1 RNA with A25C, A26U, U27C, C30U, G31U
DNA 1: CAATCTGAATTCCGGTCTCCC
DNA 2: TGGTGGCTACGACGGGATT
B17: CUCUAAG (DNA:RNA)
RNA: B1 RNA with A25C, A26U, U27C, G28U, U29A, C30A
DNA 1: CAATCTGAATTCCGGTCTCCC
DNA 2: TGGTGGCTACGACGGGATT
B18: UCAGGUC (DNA:RNA)
RNA: B1 RNA with A25U, A26C, U27A, U29G, C30U, G31C
DNA 1: CAATCTGAATTCCGGTCTCCC
DNA 2: TGGTGGCTACGACGGGATT
B19: UGUACUU (DNA:RNA)
RNA: B9 RNA with G25U, G27U, A31U
DNA 1: CAATCTGAATTCCGGTCTCCC
DNA 2: TGGTGGCTACGACGGGATT
B20: CUCCAUC (DNA:RNA)
RNA: B9 RNA with G25C, G26U, G27C, A28C, C29A, A31C
DNA 1: CAATCTGAATTCCGGTCTCCC
DNA 2: TGGTGGCTACGACGGGATT

Substitutions are numbered along the chain they refer to; changes in the protein carry UniProt numbers. The list shows a part of the results.

The target of the assay is T1, RBFOX1 RRM RbFoxmut (Fox-RRM*) (Homo sapiens, UniProt Q9NWB1 109-208, R118D;E147R;N151S;E152T).
T1 sequence: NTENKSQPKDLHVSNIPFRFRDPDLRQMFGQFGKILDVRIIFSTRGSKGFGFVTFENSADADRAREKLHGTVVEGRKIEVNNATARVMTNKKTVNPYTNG
The assay is described as follows: EMSA; HiTS-Eq, 1 nM pool, 10 min; buffer printed only for the single-RNA assays: 10 mM Tris pH 7.5, 150 mM NaCl, 3.4 mM EDTA, 0.001% NP-40, 30 C. The conditions noted are these: tags: His6 N-terminal (pET28a); label: 5' 32P. The method, boiled down: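 Relative association constants, normalised to the cognate motif, were derived by comparing read counts of each RNA species with those of the control reaction. The RNA sequenced was the free fraction, separated by 8% native PAGE after a 10 min equilibration in 50 µL of 1 nM 5′-radiolabelled RNA (7 randomized nucleotides) with increasing concentrations of purified wild-type or mutant RbFox RRM.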
For orientation: In EMSA bound probe runs differently from free probe, usually more slowly.
Take B1: the binding signal is 0.0939 KA relative to UGCAUGU. With B2 the figure was 0.131 KA relative to UGCAUGU. The value for B3 was 0.0904 KA relative to UGCAUGU; that for B4 was 0.0641 KA relative to UGCAUGU; that for B5 was 0.0677 KA relative to UGCAUGU. B6: the binding signal is 0.133 KA relative to UGCAUGU. For B7, the binding signal is 0.117 KA relative to UGCAUGU.

As for B8, the binding signal is 0.182 KA relative to UGCAUGU. The value for B9 was 0.0812 KA relative to UGCAUGU; that for B10 was 0.0912 KA relative to UGCAUGU; that for B11 was 0.111 KA relative to UGCAUGU.

For B12, the binding signal is 0.108 KA relative to UGCAUGU. The value for B13 was 0.128 KA relative to UGCAUGU; that for B14 was 0.0898 KA relative to UGCAUGU. With B15 the figure was 0.19 KA relative to UGCAUGU; with B16, 0.122 KA relative to UGCAUGU; with B17, 0.123 KA relative to UGCAUGU. With B18 the figure was 0.116 KA relative to UGCAUGU. B19: the binding signal is 0.0859 KA relative to UGCAUGU. The value for B20 was 0.0909 KA relative to UGCAUGU.
